Assay results: PubChem BioAssay AID485294 (National Center for Advancing Translational Sciences (NCATS), 2010)
In all, about 370,000 compounds went through this assay and about 150 (0.041%) were called active. The shares of active, inactive and inconclusive entries below differ from those in the screen. The call rests on the fitted dose curve; in most records, active means well fitted inhibition curve with a large enough effect; inconclusive means small, poorly fitted or top-dose-only effect; inactive means flat fitted curve, though single readings scatter. Potencies of inconclusive entries are left out as doubtful fits.
Further: nearly all actives have a fitted effect of over 25% in size.
Potency means the concentration at half of the fitted maximal effect; tags describe the fitted curve by direction and shape.
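Wherever activity change, negative = inhibition is given: 0% = no-compound wells and -100% = no-enzyme wells.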

What follows are compounds tested against Beta-lactamase (Escherichia coli (strain K12)) (UniProt P00811) (assay: qHTS Inhibitors of AmpC Beta-Lactamase (assay with detergent)). Details: AmpC hydrolysis of nitrocefin, absorbance 480 nm, 0.01% Triton; activity change, negative = inhibition: at 114 µM (top of the series).
Sequence of UniProt P00811 (P00811 whole entry, looked up): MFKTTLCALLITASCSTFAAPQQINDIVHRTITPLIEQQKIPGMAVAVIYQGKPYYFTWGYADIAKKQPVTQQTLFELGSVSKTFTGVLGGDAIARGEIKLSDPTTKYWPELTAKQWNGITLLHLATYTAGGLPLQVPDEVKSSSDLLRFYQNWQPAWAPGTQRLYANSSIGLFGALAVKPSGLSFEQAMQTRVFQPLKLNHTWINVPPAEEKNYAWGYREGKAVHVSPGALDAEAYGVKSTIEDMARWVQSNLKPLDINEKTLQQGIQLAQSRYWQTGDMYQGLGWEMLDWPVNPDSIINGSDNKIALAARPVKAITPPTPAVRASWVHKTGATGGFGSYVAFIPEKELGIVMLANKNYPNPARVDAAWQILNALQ
Method in brief: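 AmpC (5.3 nM in the dispensed reagent) in 20 mM phosphate pH 7.0 with 0.01% (detergent screen) or 0.0001% Triton X-100 was preincubated with compounds for 15 min at room temperature. Nitrocefin was then added from an 800 uM solution, and hydrolysis was followed at 480 nm.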
With COc1ccc2c(c1O)-c1c(OC)c(OC)cc3c1[C@H](C2)N(C)CC3 the Potency was inconclusive [inhibitor, partial curve, poor fit]. In the case of CC1CCN(C(=O)COC(=O)[C@H](C)NS(=O)(=O)/C=C/c2ccccc2)CC1, the Potency is reported as inconclusive [inhibitor, single point]. Cc1nc(NC(=O)c2ccccc2)nc2cc3c(cc12)OCO3 was tested, and the “activity change, negative = inhibition” value was inactive: -12.1%. Cc1onc(-c2ccccc2Cl)c1C(=O)Nc1cccc(S(=O)(=O)NC2=NCCC2)c1 was tested, and the “activity change, negative = inhibition” value was inactive: -6.6%. For C=CCN=C(NC#N)SCC(=O)NCc1ccccc1, the Potency was inconclusive [inhibitor, partial curve]. For COc1ccc(/C=C/C(=O)O)cc1S(=O)(=O)N1CCCCC1, the “activity change, negative = inhibition” value was inactive: -0.935%. With CCOc1ccccc1NC(=O)COc1ccc2ccc(=O)oc2c1 the Potency was inconclusive [inhibitor, partial curve, poor fit]. In the case of O=C(NC1CCCCC1)c1ccc(CNc2c(N3CCOCC3)c(=O)c2=O)cc1, the Potency is reported as inconclusive [inhibitor, full curve, poor fit]. For C[C@@H](C(=O)Nc1ccc2c(c1)OCO2)n1c(=O)[nH]c2ccccc2c1=O, the “activity change, negative = inhibition” value was inactive: 5.22%. For FC(F)(F)C1CCCN(c2nsc3ccccc23)C1 (stereo not given), the Potency was inconclusive [inhibitor, partial curve, poor fit]. With Cc1csc(/N=C/c2ccc([N+](=O)[O-])cc2)n1 the Potency was inconclusive [inhibitor, full curve]. With O=C(CSc1nnc(C2COc3ccccc3O2)o1)N1CCCc2ccccc21 (stereo not given) the Potency was inconclusive [inhibitor, partial curve]. With CCC(OC(=O)c1cc2sccc2n1C)C(=O)NCc1ccco1 (stereo not given) the Potency was inconclusive [inhibitor, full curve, poor fit]. With COc1cc(NC(=O)CN2CCN(c3ccccc3F)CC2)cc(OC)c1 the Potency was inconclusive [inhibitor, full curve, poor fit]. In the case of CC1CC(C)(C)CC2(C1)NC(=O)N(CC(=O)NCC(c1ccco1)N1CCCCC1)C2=O (stereo not given), the Potency is reported as inconclusive [inhibitor, full curve, poor fit]. Cc1cccc(C)c1OCc1cc(C(=O)N2CCN(c3ccccc3)CC2C)no1 (stereo not given) was tested, and the “activity change, negative = inhibition” value was inactive: 6.14%. In the case of CCCC(C)C(=O)Nc1ccc(F)c(Cl)c1 (stereo not given), the Potency is reported as inconclusive [inhibitor, full curve]. With O=C1CSCC(=O)N1c1ccccc1 the Potency was inconclusive [inhibitor, full curve]. COc1cccc(NC(=O)CC(C)=O)c1 was tested, and the Potency was inconclusive [inhibitor, full curve, poor fit]. With Cc1ccc(-n2ncc(C(=O)NC3CCCC3)c2C2CCN(C(=O)OC(C)(C)C)CC2)c(C)c1 the “activity change, negative = inhibition” value was inactive: 13.5%. In the case of Cc1ccc(C(=O)NC(=S)NCC2CCCO2)cc1 (stereo not given), the Potency is reported as inconclusive [inhibitor, full curve, poor fit]. With Cc1ccc(OCCCCN2CCCC(C)C2)c([N+](=O)[O-])c1 (stereo not given) the Potency was inconclusive [inhibitor, full curve, poor fit]. In the case of O=[N+]([O-])c1nn(-c2ccccc2)[n+]([O-])c1N1CCN(c2ccccc2F)CC1, the Potency is reported as inconclusive [inhibitor, single point]. For CCc1ccc(NC(=O)COc2ccc(/C=C(/C#N)c3nc4ccccc4[nH]3)cc2OC)cc1, the “activity change, negative = inhibition” value was inactive: 2.34%. For Cc1cccc(NC(=O)C2CCN(S(=O)(=O)c3c(C)c(C)cc(C)c3C)CC2)n1, the Potency was inconclusive [inhibitor, full curve, poor fit]. In the case of Cc1c(NS(=O)(=O)c2cccc(C(=O)O)c2)c(=O)n(-c2ccccc2)n1C, the Potency is reported as “inactive”. With Cc1ccc(C(OC(=O)c2ccco2)C(=O)NCc2cccs2)cc1 (stereo not given) the Potency was inconclusive [inhibitor, full curve, poor fit]. For CC(NC(=O)C1CCN(S(=O)(=O)c2ccc3c(c2)NC(=O)CO3)CC1)c1ccccc1 (stereo not given), the “activity change, negative = inhibition” value was inactive: -8.32%. With CC1=CC(C)(C)NC(=S)N1c1ccc(C)cc1 the Potency was inconclusive [inhibitor, partial curve]. COc1cc(C(O)CO)ccc1O (stereo not given) was tested, and the Potency was inconclusive [inhibitor, full curve, poor fit]. For Cc1cccc(/C(N)=N/OC(=O)c2cccc3ccccc23)c1, the “activity change, negative = inhibition” value was inactive: -5.12%. With Clc1ccc(CN2CCN(c3ncccn3)CC2)cc1 the Potency was inconclusive [inhibitor, partial curve, poor fit]. COc1ccc(NC(=O)Nc2cccc3cccnc23)cc1 was tested, and the Potency was inconclusive [inhibitor, partial curve, poor fit]. In the case of O=C(Nn1cnnc1)C1CCCN1S(=O)(=O)c1ccc(F)cc1 (stereo not given), the Potency is reported as inconclusive [inhibitor, single point]. O=C(NCCc1ccccn1)C(F)(F)C(F)(F)C(F)(F)C(F)(F)C(F)(F)C(F)F was tested, and the Potency was inconclusive [inhibitor, partial curve]. CCOC(=O)CNS(=O)(=O)c1ccc(S(=O)(=O)NC2CC2)cc1 was tested, and the Potency was inconclusive [inhibitor, partial curve, poor fit]. In the case of N=c1sccn1CC(=O)Nc1ccc2c(c1)CCC2, the Potency is reported as inconclusive [inhibitor, full curve, poor fit]. For NC[C@@H]1O[C@H](C23CC4CC(CC(C4)C2)C3)Cc2c1ccc(O)c2O, the “activity change, negative = inhibition” value was inactive: 6.61%. With S=C(Nc1ccc(CN2CCCCC2)cc1)Nc1cccc(Cl)c1Cl the Potency was inconclusive [inhibitor, full curve, poor fit]. With Cc1ccc2nc(C3CCCCC3)[nH]c2c1 the Potency was inconclusive [inhibitor, full curve, poor fit]. For COc1ccc(S(=O)(=O)Nc2ccccc2C(=O)N2CCCC2)cc1C, the Potency was inconclusive [inhibitor, full curve, poor fit]. For Cc1oc(-c2ccccc2F)nc1CS(=O)(=O)CC(=O)NC1CCCC1, the Potency was inconclusive [inhibitor, partial curve, poor fit]. For Cc1ccc(C(=O)CCC(=O)OCC(=O)N(CC(C)C)c2c(N)n(Cc3ccccc3)c(=O)[nH]c2=O)cc1, the Potency was inconclusive [inhibitor, full curve, poor fit]. CS(=O)(=O)Nc1nnc(SCC(=O)N(c2ccccc2)c2ccccc2)s1 was tested, and the Potency was inconclusive [inhibitor, partial curve]. COc1cc(NC(=O)CSc2nc(C)c(C)c(C)n2)cc(OC)c1 was tested, and the Potency was inconclusive [inhibitor, partial curve]. For CC(C)[C@H](NC(=O)N1c2ccccc2NC(=O)[C@@H]1C(C)C)C(=O)N[C@@H](C(=O)O)c1ccccc1, the Potency was inconclusive [inhibitor, full curve, poor fit]. With Cc1nc(-c2ccccc2)sc1-c1nc(-c2cccnc2)ncc1S(=O)(=O)c1ccccc1 the “activity change, negative = inhibition” value was inactive: -8.7%. In the case of CC(=O)Oc1ccc2c(=O)c(-c3ccccc3)c(C)oc2c1, the Potency is reported as inconclusive [inhibitor, full curve, poor fit]. CCOc1ccc(N2C(=O)S/C(=C\c3cccn3C)C2=O)cc1 was tested, and the “activity change, negative = inhibition” value was inactive: 2.27%. CCCc1nn(C)c(C(=O)Nc2cccc(CC)c2)c1Cl was tested, and the Potency was inconclusive [inhibitor, partial curve]. In the case of Cc1cc(C)cc(OCC(=O)OCC(=O)N(C)CC(=O)Nc2ccc(F)cc2)c1, the Potency is reported as inconclusive [inhibitor, full curve, poor fit]. In the case of Cc1ccc(OCc2nc(-c3cccnc3)no2)cc1C, the “activity change, negative = inhibition” value is reported as inactive: -1.21%. For Cc1ccccc1C(=O)N1CCC(C(=O)OCc2nc(N)nc(Nc3ccccc3)n2)CC1, the Potency was inconclusive [inhibitor, partial curve, poor fit]. For Cc1ccc(C(=O)OCCN2CCN(c3ncc(C(F)(F)F)cc3Cl)CC2)cc1, the Potency was inconclusive [inhibitor, partial curve]. In the case of Cc1ccc(-c2nc(CSCC(=O)Nc3cc(C)on3)c(C)o2)cc1, the Potency is reported as inconclusive [inhibitor, partial curve, poor fit]. For COc1cccc(OC)c1C(=O)OCC(=O)N(C)c1ccccc1, the Potency was inconclusive [inhibitor, partial curve, poor fit]. CCOC(=O)NC(=O)CN1C(=O)NC2(CCc3ccccc32)C1=O (stereo not given) was tested, and the Potency was inconclusive [inhibitor, full curve, poor fit]. In the case of COc1ccc(NC(=O)c2oc3ccccc3c2NC(=O)c2cc(=O)c3c(C)cc(C)cc3o2)cc1, the “activity change, negative = inhibition” value is reported as inactive: 6.86%. With CCC(=O)Nc1cc(NC(=O)CSc2ncc(-c3ccc(F)cc3)n2Cc2ccco2)ccc1C the Potency was inconclusive [inhibitor, partial curve]. In the case of CCCNC(=O)NCCc1c(C)[nH]c2ccccc12, the Potency is reported as inconclusive [inhibitor, full curve, poor fit]. In the case of OCCOCCNc1ncnc2c1cnn2-c1ccc(Cl)cc1, the “activity change, negative = inhibition” value is reported as inactive: 3.4%. For CCN(CC)c1ccc(-c2nn3c(-c4ccccc4OC)nnc3s2)cc1, the “activity change, negative = inhibition” value was inactive: -3.51%. Cc1ccc2[nH]c(=O)c(CN(CCCO)S(=O)(=O)c3c(C)ccc4nsnc34)cc2c1 was tested, and the Potency was inconclusive [inhibitor, full curve, poor fit]. With O=S(=O)(c1ccccc1)N1CCN(c2nc(-c3cccs3)nc3ccccc23)CC1 the Potency was inconclusive [inhibitor, full curve, poor fit]. In the case of O=C(c1ccc(Br)o1)N(c1ccccn1)C1CCCCC1, the Potency is reported as inconclusive [inhibitor, full curve, poor fit].
